Measured values reported in publication PMC4336329 (PLoS ONE, 2015).
About 2,200 (0.71%) of roughly 310,000 compounds showed an effect of 50% or more. Effects have a minus sign here. Some of the results follow.

Biological target: human ether-à-go-go-related gene (hERG) potassium channel (human, UniProt Q12809)
Experiment: primary screen, population patch clamp on CHO cells stably expressing hERG

Sequence of human ether-à-go-go-related gene (hERG) potassium channel (Q12809 whole entry, looked up): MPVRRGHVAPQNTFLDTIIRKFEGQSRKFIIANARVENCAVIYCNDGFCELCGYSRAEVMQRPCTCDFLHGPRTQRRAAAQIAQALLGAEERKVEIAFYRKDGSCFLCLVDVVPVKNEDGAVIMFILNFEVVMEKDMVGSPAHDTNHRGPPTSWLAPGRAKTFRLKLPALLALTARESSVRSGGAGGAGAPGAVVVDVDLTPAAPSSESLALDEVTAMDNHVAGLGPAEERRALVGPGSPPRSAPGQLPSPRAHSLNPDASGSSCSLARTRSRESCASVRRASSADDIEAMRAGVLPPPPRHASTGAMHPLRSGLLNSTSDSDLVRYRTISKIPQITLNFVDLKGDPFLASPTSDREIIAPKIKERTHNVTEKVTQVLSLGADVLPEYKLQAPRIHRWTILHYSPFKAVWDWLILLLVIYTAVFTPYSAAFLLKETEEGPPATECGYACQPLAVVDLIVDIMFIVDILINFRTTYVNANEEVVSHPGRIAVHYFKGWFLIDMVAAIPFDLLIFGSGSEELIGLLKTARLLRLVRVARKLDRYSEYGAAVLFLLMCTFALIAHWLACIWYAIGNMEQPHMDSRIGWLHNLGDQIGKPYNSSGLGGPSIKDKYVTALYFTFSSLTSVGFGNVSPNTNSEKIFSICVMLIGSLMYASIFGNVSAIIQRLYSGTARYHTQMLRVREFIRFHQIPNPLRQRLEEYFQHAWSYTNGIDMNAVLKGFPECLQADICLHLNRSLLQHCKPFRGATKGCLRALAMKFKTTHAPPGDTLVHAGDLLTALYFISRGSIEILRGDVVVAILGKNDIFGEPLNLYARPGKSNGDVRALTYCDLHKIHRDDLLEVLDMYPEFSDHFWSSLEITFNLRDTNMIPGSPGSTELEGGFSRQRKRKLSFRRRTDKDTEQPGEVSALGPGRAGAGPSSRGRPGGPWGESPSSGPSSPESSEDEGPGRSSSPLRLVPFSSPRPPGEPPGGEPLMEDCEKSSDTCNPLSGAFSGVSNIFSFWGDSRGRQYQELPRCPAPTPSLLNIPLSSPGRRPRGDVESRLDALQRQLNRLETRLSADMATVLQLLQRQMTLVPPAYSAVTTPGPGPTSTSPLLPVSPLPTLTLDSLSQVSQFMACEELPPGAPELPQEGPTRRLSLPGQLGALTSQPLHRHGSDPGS

| SMILES | hERG current change (%, negative = inhibition) at 1uM [%] |
| --- | --- |
| O=C(NCCc1ccccc1Cl)C1CCC(=O)N(CCCc2ccccc2)C1 (stereo not drawn) | -10.7 |
| CC1(C)Cc2c(sc3nc4n(c(=N)c23)CCCCC4)CO1.Cl | 6.04 |
| COCCCN1CCN(C2Cc3ccccc3Sc3ccc(Cl)cc32)CC1.O=C(O)/C=C\C(=O)O (stereo not drawn) | -43.4 |
| COC(=O)c1cc(O)cc(OC)c1C(=O)c1c(O)cc(C)cc1O | 10.2 |
| Cc1ccc(NC(=O)COC(=O)C2=NN(c3ccccc3)C(=O)CC2)c(Br)c1 | 2.03 |
| CC(C)=C1C(=O)NN(c2ccc(F)c(Cl)c2)C1=O | 21.3 |
| CC(C)CCN1CCN(Cc2cc(F)ccc2-n2cccn2)CC1CCO (stereo not drawn) | -6.05 |
| CCN1CCc2c(OCC(=O)Nc3ccc4c(c3)OCCO4)cccc2C1=O | 8.67 |
| Cc1cc(C)nc(N/C(=N\S(=O)(=O)Cc2ccccc2)Nc2ccc(F)c(Cl)c2)n1 | 4.12 |
| Nc1nnc(Cc2ccccc2F)s1 | 8.53 |
| CC1CC(C)CN(CCCNC(=O)C2CCCN(c3nnc(N4CCCC4=O)s3)C2)C1 (stereo not drawn) | 7.48 |
| Cc1c(Cl)cccc1NC(=O)CC1SC(=NCC2CCCO2)NC1=O (stereo not drawn) | 6.98 |
| COc1ccccc1NC(=O)C(C)OC(=O)C1CCN(S(=O)(=O)c2ccc(C)c(C)c2)CC1 (stereo not drawn) | 8.18 |
| COc1ccccc1Sc1ccccc1CC(C)N.Cl.O (stereo not drawn) | 5.96 |
| OCCNCCCCOc1ccccc1F | 0.948 |
| CCn1ccnc1CN1CCCC(C(=O)c2cc(C)c(OC)c(C)c2)C1 (stereo not drawn) | 0.615 |
| Br.COC(=O)Cn1c(=N)n(CCN2CCCCC2)c2ccccc21 | -1.35 |
| Clc1ccc(OCCCN2CCCC2)cc1Cl.O=C(O)C(=O)O | -20.1 |
| COc1ccc(Cl)cc1NC(=O)CSc1sc2c(O)cc(=O)[nH]c2c1C#N | 12 |
| CCc1cccc(NC(=O)CSC2=NS(=O)(=O)c3ccccc32)c1 | 6.14 |
| O=c1c(Cc2ccc(F)cc2)c(O)ccn1CCCn1ccnc1 | 20.5 |
| Cc1ccc(C)c(OCC(=O)Nc2cccc(C(=O)O)c2)c1C | 0.29 |
| O=C(Nc1ccc(Oc2ccsc2C(=O)O)cc1)c1ccccc1 | 11.8 |

| SMILES | hERG current change (%, negative = inhibition) at 1uM [%] |
| --- | --- |
| Cc1cccc(C)c1NC(=O)COC(=O)c1c(C)nn(-c2ccccc2)c1C | 8.88 |
| O=C(CSc1nc(-c2ccc(Cl)cc2)[nH]c(=O)n1)Nc1cccc(Cl)c1 | 14.6 |
| O=C(Nc1cccc(Cl)c1)C1CCN(C(=O)c2cccs2)CC1 | 4.41 |
| CCCC(=O)Nc1ccc2nn(-c3ccc(OC)cc3)nc2c1 | 9.9 |
| CCN(CC)C(=O)c1scc2c1OCCO2 | 7.95 |
| CCOc1ccc(NC(=O)Nc2ccc(N(C)C(C)=O)cc2)cc1 | 4.66 |
| Cc1[nH]n(-c2ncc(-c3ccccc3)s2)c(=O)c1C(c1ccc(Cl)cc1)C(C#N)C#N (stereo not drawn) | 9.79 |
| COc1ccc(/C=N\NC(=O)CC(=O)Nc2cccc(Cl)c2)cc1OC | 3.74 |
| Cc1ccc(C(=O)N/C(=C\c2ccc(-c3ccccc3[N+](=O)[O-])o2)C(=O)NCCCN2CCOCC2)cc1 | -11.2 |
| CSc1ncc(C(C)=O)c(C)n1 | 9.21 |
| C=CCn1c(SCC(=O)NC2CCCCC2)nnc1-c1sc(N)nc1C | 1.71 |
| CN1C2=C(C#N)C(c3ccccc3)(C(F)(F)F)NC(=O)N2c2ccccc21 (stereo not drawn) | 14.1 |
| CN1CCOCCOc2ccccc2OCCOCC1 | 17.5 |
| Cc1nc(C)c(NC(=O)OC(C)C)cc1NC(=O)OC(C)C | 13.1 |
| COc1ccc(/C=C/C(=O)c2cc(Cl)ccc2O)c(OC)c1 | 8.33 |
| CCOc1ccc(NC(=O)COc2ccc(C(=O)NCC3CCCO3)cc2OC)cc1 (stereo not drawn) | -0.29 |
| CCS(=O)(=O)N1CCC(C(=O)Oc2ccccc2OC)CC1 | 15.6 |
| COc1ccc(NC(=S)NCCc2ccc(F)cc2)c(OC)c1 | 5.44 |
| COc1ccc(S(=O)(=O)NC(N)=NCCc2ccccc2OC)cc1 | 2.13 |
| CS(=O)(=O)N1CCCC(C(=O)NCCc2ccccc2)C1 (stereo not drawn) | -3.5 |
| Oc1ccc(C[C@H]2CNCCN2CCc2cccc3ccccc23)cc1 | -1.85 |
| CN1C(=O)CC(=O)N(C)c2cc(S(=O)(=O)N(C)Cc3ccccc3)ccc21 | 7.47 |
| CN(Cc1ccccc1)C(=O)c1ccc(Cl)c([N+](=O)[O-])c1 | -18.2 |

| SMILES | hERG current change (%, negative = inhibition) at 1uM [%] |
| --- | --- |
| Cc1ccc(S(=O)(=O)CCC(=O)OCc2ccc(S(=O)(=O)C(C)C)cc2)cc1 | 9.22 |
| Cc1cc(=O)n2[nH]c(-c3ccco3)nc2n1 | 13.9 |
| CCCC1=C([O-])C2N=CC=CC2=[N+](c2ccccn2)C1=O (stereo not drawn) | 7.13 |
| CCN(C(=O)Cn1nc(C)n2c(cc3cc(C)ccc32)c1=O)c1ccccc1 | -15.9 |
| C=CCSc1nc(O)c(CC)c(=O)n1C(C)CC (stereo not drawn) | 5.6 |
| O=C(Cc1cccc2ccccc12)Nc1ccc(OC(F)F)c(Cl)c1 | 14.7 |
| N#CNC(=Nc1cccc(C(F)(F)F)c1)SCc1ccc(C(=O)O)cc1 | 9.54 |
| CC1(C)Cc2c(sc(/N=C/N3CCCCCC3)c2C#N)C(C)(C)N1 | 14.8 |
| O=C(Nc1nc2ccccc2[nH]1)c1ccccc1[N+](=O)[O-] | 0.789 |
| CCc1ccc(C(=O)NC(CCSC)C(=O)OC)cc1 (stereo not drawn) | 8.97 |
| CCOC(=O)C[n+]1c(C)sc2ccc(OC)cc21.[Br-] | 12.8 |
| COc1cccc(-c2cc(C(=O)NCC3CCCO3)c3cc(Br)cc(C)c3n2)c1 (stereo not drawn) | 17.4 |
| Cc1ccc(N(C(=O)c2csnn2)C(C(=O)NC2CCCC2)c2cccnc2)cc1 (stereo not drawn) | 8.22 |
| CCOc1nc(NCCC2=CCCCC2)nc(N2CCOCC2)n1 | 1.87 |
| O=[N+]([O-])c1ccc(O)c(/C=N\N=C2c3ccccc3-c3ccccc32)c1 | 9.91 |
| O=C(c1ccco1)N1N=C(c2cccs2)CC1c1ccccc1O (stereo not drawn) | 14.2 |
| COc1cc(OC)cc(C(=O)n2cnnc2N)c1 | 1.66 |
| CCC(=O)Nc1nc(C)cc(SCC(=O)OC)n1 | 16.3 |
| CC(=O)c1ccc(N2CCN(S(=O)(=O)c3ccc4c(c3)CC(=O)N4)CC2)cc1 | 8.48 |
| CCN(CC)S(=O)(=O)c1ccc(OC)c(NC(=O)OCc2ccccc2)c1 | 2 |
| O=C(Nc1nc2ccc(F)cc2s1)C1CC(=O)N(c2ccc3c(c2)OCCO3)C1 (stereo not drawn) | 6.02 |
| Nc1nn(-c2ccccc2)c(N)c1N=Nc1ccc2c(c1)OCO2 | 0.368 |
| O=C(CSc1nc2c(c(=O)[nH]1)CCC2)Nc1cccc(Cl)c1 | 5.77 |

| SMILES | hERG current change (%, negative = inhibition) at 1uM [%] |
| --- | --- |
| O=S(=O)(N1CCOCC1)N1CCCN(S(=O)(=O)N2CCOCC2)CC1 | 2.15 |
| Cc1ccccc1NC(=O)c1sc2nc(N3CCOCC3)c3c(c2c1N)CCCC3 | 13.6 |
| Cc1ccc(S(=O)(=O)NCCCCCC(=O)NCCc2ccccc2)cc1 | 14 |
| CC1(NC(=O)Cc2csc(-c3cccc(Cl)c3)n2)CCS(=O)(=O)C1 (stereo not drawn) | 14.1 |
| O=C(NCc1ccccc1)c1cccc(COc2cccc(Cl)c2)c1 | 7.36 |
| O=c1c2ccccc2sc2ccc(C#CC3(O)CCCCC3)cc12 | 12.3 |
| CSCC[C@H](N)C(=O)N1CCC(C(=O)N[C@@H](Cc2c[nH]c3ccccc23)C(=O)O)CC1 | 1.27 |
| Cn1nnnc1-c1cc(Cl)cc(Cl)c1 | 11.8 |
| Cn1c(SCC(=O)Nc2ccccc2F)nnc1-c1cccs1 | 6.57 |
| CCCc1nc2ccc(NC(=O)NCCC(=O)OCC)cc2c(=O)n1Cc1cccc(Cl)c1 | -3.49 |
| COC(=O)c1ccc(/C=C2/SC(=S)N(CCCC(=O)Nc3ccc(O)cc3)C2=O)cc1 | 13.5 |
| O=S(=O)(Nc1ccc(O)cc1)c1cccc2cccnc12 | 12.1 |
| CCOc1ccc(NC(=S)NN2C(C)CCCC2C)cc1 (stereo not drawn) | 4.48 |
| Cc1nc(C(F)(F)F)ccc1C(=O)NCC(O)c1ccccc1 (stereo not drawn) | 3.72 |
| COCC(=O)N1CCCC(C(=O)c2ccc(-c3ccccc3)c(F)c2)C1 (stereo not drawn) | -4.64 |
| COc1ccc(Nc2nnc(C)c3ccccc23)cc1 | 9.56 |
| COc1cccc(/C=N/NC(=O)c2c(-c3ccccc3)noc2C)c1 | 5.95 |
| COc1ccc(-c2cn3ccccc3n2)cc1[N+](=O)[O-] | 6.58 |
| CCOC(=O)N1CCN(C(=O)CSc2ccc3nnc(-c4ccncc4)n3n2)CC1 | -4.9 |
| COC(=O)/C=C1\SC(=Nc2ccc(Cl)c(Cl)c2)NC1=O | 17.1 |
| COC(=O)c1cc(S(=O)(=O)Nc2nn(C)c3cccc(F)c23)oc1C | 16.7 |
